What all share (assay): cell count relative to DMSO control; melanoma cells; higher = more viable cells
Conditions in all cases: library dose: standard library concentration; 72 h

Test [1] concerns A101D.
The test system of test [2] is A2058.
The test system of test [3] is A375.

Some of the results follow. Many values rest on one well or one pass, so single values are uncertain.
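Note: cells treated in 1,536-well plates, then fixed and DAPI-stained, with nuclei counted from automated high-throughput microscope images.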

Take `CC1(C)CCC(c2ccc(Cl)cc2)=C(CN2CCN(c3ccc(C(=O)NS(=O)(=O)c4ccc(N[C@H](CCN5CCOCC5)CSc5ccccc5)c(S(=O)(=O)C(F)(F)F)c4)cc3)CC2)C1` + CC(=O)c1c(C)c2cnc(Nc3ccc(N4CCNCC4)cn3)nc2n(C2CCCC2)c1=O [palbociclib] (first compound 2 µM, partner dose 0.2 µM): the cell count in test [1] came to 57.3%; in test [2] it was 96.3%; in test [3], 57.4%.
Regarding `O=C(/C=C/c1cccnc1)NCCCCC1CCN(C(=O)c2ccccc2)CC1` + Cc1cc(Nc2cc(N3CCN(C)CC3)nc(/C=C/c3ccccc3)n2)n[nH]1 [ENMD2076] (first compound 0.05 µM, partner dose 0.2 µM), the cell count in test [1] was found to be 73.7%; in test [2] it was 94.2%; in test [3], 89.1%.
Consider `Cc1ccc(Nc2nccc(N(C)c3ccc4c(C)n(C)nc4c3)n2)cc1S(N)(=O)=O` [Pazopanib] + CN1CCN(c2ccc3nc(-c4c(N)c5c(F)cccc5[nH]c4=O)[nH]c3c2)CC1 [Dovitinib] (first compound 2 µM, partner dose 0.5 µM), for which the cell count in test [1] was 70.2%; in test [2] it was 21.7%; in test [3], 69.3%.
`O=C(/C=C/c1cccnc1)NCCCCC1CCN(C(=O)c2ccccc2)CC1` + OCCn1cc(-c2cnc3nnn(Cc4ccc5ncccc5c4)c3n2)cn1 [PF04217903] (first compound 0.05 µM, partner dose 5 µM): the cell count in test [1] was found to be 93.4%; in test [2] it was 109%; in test [3] it was 128%.
The matching figures for `CC1(C)CCC(c2ccc(Cl)cc2)=C(CN2CCN(c3ccc(C(=O)NS(=O)(=O)c4ccc(N[C@H](CCN5CCOCC5)CSc5ccccc5)c(S(=O)(=O)C(F)(F)F)c4)cc3)CC2)C1` + NCC(=O)Nc1ccc(-n2nc(C(F)(F)F)cc2-c2ccc3c(ccc4ccccc43)c2)cc1 [OSU03012] (first compound 2 µM, partner dose 5 µM): 21.1%, 83.4% and 21%.
The like results for `Cc1ccc(Nc2nccc(N(C)c3ccc4c(C)n(C)nc4c3)n2)cc1S(N)(=O)=O` [Pazopanib] + NCC(=O)Nc1ccc(-n2nc(C(F)(F)F)cc2-c2ccc3c(ccc4ccccc43)c2)cc1 [OSU03012] (first compound 2 µM, partner dose 5 µM) were, in that order, 51.4%, 102% and 55.4%.
As for `O=C(/C=C/c1cccnc1)NCCCCC1CCN(C(=O)c2ccccc2)CC1` + CC(C)(C)c1cnc(CSc2cnc(NC(=O)C3CCNCC3)s2)o1 [SNS-032] (first compound 0.05 µM, partner dose 0.05 µM), the cell count in test [1] amounted to 84.1%; in test [2], 78.7%; in test [3], 96.7%.
With `O=C(/C=C/c1cccnc1)NCCCCC1CCN(C(=O)c2ccccc2)CC1` + COCC[n+]1c2c(n(Cc3cnccn3)c1C)C(=O)c1ccccc1C2=O [YM155] (first compound 0.05 µM, partner dose 0.002 µM), the values for the cell count in test [1], in test [2] and in test [3] were 57.1%, 18.7% and 76.4%, respectively.
`Cc1ccc(Nc2nccc(N(C)c3ccc4c(C)n(C)nc4c3)n2)cc1S(N)(=O)=O` [Pazopanib] + Clc1ccc(Nc2nnc(Cc3ccncc3)c3ccccc23)cc1 [vatalanib] (first compound 2 µM, partner dose 10 µM): the results for the cell count in test [1], in test [2] and in test [3] were 72.4%, 86.9% and 90.2%, respectively.
Regarding `CC1(C)CCC(c2ccc(Cl)cc2)=C(CN2CCN(c3ccc(C(=O)NS(=O)(=O)c4ccc(N[C@H](CCN5CCOCC5)CSc5ccccc5)c(S(=O)(=O)C(F)(F)F)c4)cc3)CC2)C1` + CN(c1ncccc1CNc1nc(Nc2ccc3c(c2)CC(=O)N3)ncc1C(F)(F)F)S(C)(=O)=O [PF562271] (first compound 2 µM, partner dose 0.4 µM), the cell count in test [1] stood at 55.4%; in test [2], 76.6%; in test [3] it was 85.6%.
The matching figures for `O=C(/C=C/c1cccnc1)NCCCCC1CCN(C(=O)c2ccccc2)CC1` + CS(=O)(=O)c1ccc(C(=O)Nc2ccc(Cl)c(-c3ccccn3)c2)c(Cl)c1 [vismodegib] (first compound 0.05 µM, partner dose 5 µM): 88.9%, 95.8% and 114%.
The matching figures for `Cc1ccc(Nc2nccc(N(C)c3ccc4c(C)n(C)nc4c3)n2)cc1S(N)(=O)=O` [Pazopanib] + CS(=O)(=O)CCNCc1ccc(-c2ccc3ncnc(Nc4ccc(OCc5cccc(F)c5)c(Cl)c4)c3c2)o1 [lapatinib] (first compound 2 µM, partner dose 4 µM): 60%, 82.7% and 125%.
The like results for `Cc1ccc(Nc2nccc(N(C)c3ccc4c(C)n(C)nc4c3)n2)cc1S(N)(=O)=O` [Pazopanib] + Cc1cc(N2CCOCC2)cc2[nH]c(-c3c(NC[C@@H](O)c4cccc(Cl)c4)cc[nH]c3=O)nc12 [BMS536924] (first compound 2 µM, partner dose 1 µM) were, in that order, 75.4%, 74.8% and 87%.
`O=C(/C=C/c1cccnc1)NCCCCC1CCN(C(=O)c2ccccc2)CC1` + Cn1cnc2c(F)c(Nc3ccc(Br)cc3Cl)c(C(=O)NOCCO)cc21 [selumetinib] (first compound 0.05 µM, partner dose 0.075 µM): the values for the cell count in test [1], in test [2] and in test [3] were 70.1%, 92% and 97.7%, respectively.
